Read counts are not given, so values of variants with three or more changes are uncertain.
B1: LINE1-full (parent)
chain: UACGUAGGUGGUUUUCCCCUGAUAGUGCUAAGGGGGCCUGGAAGUUUGGACUGGGCAGAGCUCAACACAGCGUGGCAAAGUGGCUGUGGCUAGACUGCCUCUCUGGAUUCCUCGUCACUCAGCAGGGCAUCUCUGAGAGAAAUGCC

Variants of: B1
Assay: self-cleavage, relative activity (ratio to wild type); higher = more cleavage; in vitro, sequencing; the parent is a self-cleaving ribozyme

Row | Variant | self-cleavage
1 | UACGUAGGUGGCUUUCCCCUGAUAGUGCUAAGGGGGCCUGGAAGUUUGGUCUGGGCAGAGCUCAACACAGCGUGGCAAAGUGGCUGUGGCUAGACUGCCUCUCUGGACUCCUCGUCACUCAGCAGGGCAUCUCUGAGAGAAAUGCC [U12C A50U U108C] | 0.97
2 | UACGUAGGAGGUUUCCCCCUGAUAGUGCUAAGGGGGCCUGGAAGUUUGGACUGGGCAGAGCCCAACACAGCGUGGCAAAGUGGCUGUGGCUAGACUGCCUCUCUGGAUUCCUCGUCACUCAGCAGGGCAUCUCUGAGAGAAAUGCC [U9A U15C U62C] | 0.18
3 | UACGUAGGUGGUUUUCCCCUGAUAGUGCUAAGGGGGCCUGGAAGUCUGGACUGGGCAGAGCUCAACACUGCGUGGCAAAGUGGCUGUGGCUAGACUGCCUCUCUGGGUUCCUCGUCACUCGGCAGGGCAUCACUGAGAGAAAUGCC [U46C A69U A107G A121G U132A] | 0
4 | UACGUAGGUGGUUUUCCCUUGAUAGUGCUAAGGGGGCCUGGAAGUUUGGACUGGGCAGAGCUCAGCACAGCGUGGCAAAGUGGCUGUGGCAAGACUGCCUCUCUGGAUUCCUCGUCACUCAGCAGGGCAUCUCUGAGAGAAAUGCC [C19U A65G U91A] | 0.05
5 | UACGUAGGCGGUUUUCCCCUGAUAGUGCUAAGGGGGCCUGGAAGUUUGGACUGGGCGGAGCUCAACACAGCGUGGCAAAGUGGCUGUGGCUAGACUGCCUCUCUGGUUUCCUCGUCACUCAGCAGGGCAUCUCUGAGAGAAAUGCC [U9C A57G A107U] | 0.62
6 | UACGUAGGUGGUUUUCCCCUGAUUGUGCUAAGGGGGCCUGGAAGCUUGGACUGGGCAGAGCUCAACACAGCGUGGCAAAGUGGCUGUGGCUAGACUGCCUCUCUGGAUUCCUCGCCACUCAGCAGGGCAUCUCUGAGAGAAAUGCC [A24U U45C U115C] | 1.11
7 | UACGCAGGUGGUUCUCCCCUGAUAGUGCUAAGGGGGCCUGGAAGUCUGGACUGGGCAGAGCUCAACACAGCGUGGCAAAGUGGCUGUGGCUAGACUGCCUCUCUGGAUUCCCCGUCACUCAGCAGGGCAUCUCUGAGAGAAAUGCC [U5C U14C U46C U112C] | 0.35
8 | UACGUAGGCGGUUUUCCCCUGAUAGUGCUAAGGGGGCCUGGAAGUUUGGACUGGGCAGAGCUCAACACAGCGUGGCAAAGUGGCUGUGGCUAGACUGCCUCUCUGGAUUCCUCGUCACUCUGCAGGGCAUCUCUGGGAGAAAUGCC [U9C A121U A136G] | 0.93
9 | UACGUAGGUGGUUUUCCCCUGAUAGUGCUAAGGGGGCCUGAAAGUUUGGACUUGGCAGAGCUCAACACAGCGUGGCAAAGUGGCUGUGGCUAGACUGCCUCUCUGGAUUCCUCGCCACUCAGCAGGGCAUCUCUGAGAGAAAUGCC [G41A G53U U115C] | 1.3
10 | UACGUAGGUGGUUUUCCCCUGAUAGUGCUAAGGGGGCCUGGAAGUUCGGACUGGGCAGAGCUCAACACAGCGUGGCAAAGUGGCUGUGGCUAGACGGCCUCUCUGGAUUCCUCGUCACUCAGCGGGGCAUCUCUGAGAGAAAUGCC [U47C U96G A124G] | 0
11 | UACGUAGGUGGUUUUCCCCUGAUAGAGCUAAGGGGGCCUGGAAGUUUGGACUAGGCAGAGCUCAACACAGCGUGGCAAAGUGGCUGUGGCUAGACUGCCUCUAUGGAUUCCUCGUCACUCAGCAGUGCAUCUCUGAGAGAAAUGCC [U26A G53A C103A G126U] | 0.61
12 | UACGUAGGUGGUUUUCCCCUGAUAGUGCUAAGGGGGCCUGGAAGUUUGGACUGGGCAGAGCUCAACACGGCGUGGCAAAGUGGCUGUGGCUAGACUGCCUCUCUGGACUCCUCGUCACUCAGCAGGGCAUCUCUGAGAGAGAUGCC [A69G U108C A141G] | 0.26
13 | UACGUAGGUGGUUUUCCCCUGAUAGUGCUAAGGGGGCCUGGAAGUUUGGGCUGGGCAGAGCUCAACACAGCGUGGCAAAGUGGCUGUGGCUAGACUGCCUCCCUGGAUUCCUCGUCACUCAGCAGGGCAUCUCUGAGUGAAAUGCC [A50G U102C A138U] | 0
14 | UACGUAGGUGGUUUUCCCCUGAUAGUGCUAAGGGGGCCUGGAAGUUUGGACUGGGCAGAGCUCGACACAGCGUGGCAAAGGGGCUGUGGCUAGACUGCCUCUCUGGAUUCCUCGUCACUCUGCAGGGCAUCUCUGAGAGAAAUGCC [A64G U81G A121U] | 0.35
15 | UACGUAGGUGGUUAUCCCCUGAUAGUGCUAAGGGGGCCUGGAAGUUUGGGCGGGGCAGAGCUCAACACAGCGUGGCAAAGUGGCUGUGGCUAGACUGCCUCUCUGGAUUCCUCGUCACUCAGCAGGGCAUCUCUGAGAGAAAUGCC [U14A A50G U52G] | 0.79
16 | UACGUAGGUGGUAUUCCCCUGAUAGUGCUAUGGGGGCCCGGAAGUUUGGACUGGGCAGAGCUCAGCACAGCGUGGCAAAGUGGCUGUGGCUAGACUGCCUCUCUGGAUUCCUCGUCACUCAGCUGGGCAUCUCUGAGAGGAAUGCC [U13A A31U U39C A65G A124U A140G] | 0
17 | UACGUUGGUGGUUUUCCCCUGAUAGUGCUAAGGGGGCCUGGAAGUUUGGACUGGGCAGAGCUCAACACAGCGUGGCAAAGUGGCUGUGGCUAGACUGCCUCUCUGGAUUCCUCGUCGCUCAGCAGGGCAUCUCCGAGAGAAAUGCC [A6U A117G U134C] | 0.89
18 | UACGUAGGAGGUUUCCCCCUGAUCGUGCUAAAGGGGCCUGGAAGUUUGGACUGGGCAGAGCUCAACACAGCGUGGCAAAGUGGCUGUGGCUAGACUGCCUCUCUGGAUUCCUCGUCACUCAGCAGGGCGUCUCUGAGAGAAAUGCC [U9A U15C A24C G32A A129G] | 0.5
19 | UACGUGGGUGGUUUUCCCCUGAUAGUGCUAAGGGGGCCUGGAAGUUUGGACUGGGCAGAGCUCAACACAGCGUGGCAAAGUAGCUGUGGCUAGACUGCCUCUCUGGAUUCCUCGUCACUCAGCAGGGCAUCUCUGAGAGAGAUGCC [A6G G82A A141G] | 1.26
20 | UACGUAGGUGGUUUUCCCCUGAUAGUGCUAAGGGGGCCUGGAAGUUUGGACUGGGCAGAGCUCAACACAGCGUGGCAAAGUGGCUGUGGCUAGACUGCCUCUCCGGAUCCCUCGUCUCUCAGCAGGGCAUCUCUGAGAGAAAUGCC [U104C U109C A117U] | 1.8

Reference: the RNAGym collection of RNA variant scans (doi:10.7554/elife.90254)
